The campaign covered roughly 310,000 compounds. About 2,200 (0.71%) showed an effect of 50% or more. Effects have a minus sign here. The list shows a part of the results.
biological target: human ether-à-go-go-related gene (hERG) potassium channel (human, UniProt Q12809); experiment: primary screen, population patch clamp on CHO cells stably expressing hERG
Sequence (Q12809 whole entry, looked up): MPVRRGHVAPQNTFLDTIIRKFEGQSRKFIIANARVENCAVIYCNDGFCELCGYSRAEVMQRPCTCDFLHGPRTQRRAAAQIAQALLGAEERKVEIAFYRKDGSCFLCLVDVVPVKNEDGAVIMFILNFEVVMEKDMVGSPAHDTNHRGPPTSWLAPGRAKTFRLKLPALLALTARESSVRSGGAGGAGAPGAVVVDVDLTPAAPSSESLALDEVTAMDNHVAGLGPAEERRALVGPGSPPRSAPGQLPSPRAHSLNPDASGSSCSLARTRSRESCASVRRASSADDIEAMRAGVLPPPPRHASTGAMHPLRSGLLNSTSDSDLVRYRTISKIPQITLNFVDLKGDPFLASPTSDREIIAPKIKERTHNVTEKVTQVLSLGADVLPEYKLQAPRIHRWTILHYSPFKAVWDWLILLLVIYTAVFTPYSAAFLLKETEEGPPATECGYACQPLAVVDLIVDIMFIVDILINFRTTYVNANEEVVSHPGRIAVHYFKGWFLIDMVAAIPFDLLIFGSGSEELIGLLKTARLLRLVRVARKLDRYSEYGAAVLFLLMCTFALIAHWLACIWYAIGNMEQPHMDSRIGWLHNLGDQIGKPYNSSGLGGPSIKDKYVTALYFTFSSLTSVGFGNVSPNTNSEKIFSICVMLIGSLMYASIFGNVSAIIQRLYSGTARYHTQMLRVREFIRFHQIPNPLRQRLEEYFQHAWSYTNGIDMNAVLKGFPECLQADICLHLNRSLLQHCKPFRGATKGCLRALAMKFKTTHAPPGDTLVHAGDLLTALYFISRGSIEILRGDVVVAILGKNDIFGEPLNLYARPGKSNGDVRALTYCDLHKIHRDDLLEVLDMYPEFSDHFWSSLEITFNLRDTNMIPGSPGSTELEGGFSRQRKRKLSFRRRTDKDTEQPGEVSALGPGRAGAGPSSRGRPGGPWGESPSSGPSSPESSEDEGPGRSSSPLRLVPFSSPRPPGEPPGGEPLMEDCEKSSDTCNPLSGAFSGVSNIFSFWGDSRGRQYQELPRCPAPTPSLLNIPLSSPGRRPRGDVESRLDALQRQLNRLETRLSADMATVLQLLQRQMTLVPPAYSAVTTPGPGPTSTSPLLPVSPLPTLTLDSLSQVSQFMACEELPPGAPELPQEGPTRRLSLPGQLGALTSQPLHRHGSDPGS

In order of rising “hERG current change (%, negative = inhibition) at 1uM” value:
1. COc1ccc(CNCCC(c2ccc(F)cc2)c2ccc(OC)cc2)cc1 (stereo not drawn)  -35.6%
2. COc1ccc(CNCC(O)COc2cccc3c2OC(C)(C)C3)cc1.Cl (stereo not drawn)  -31.7%
3. CC1(c2ccc(OC(F)F)cc2)NC(=O)N(CC(=O)Nc2ccccc2)C1=O (stereo not drawn)  -26.2%
4. CCOC(=O)N1CCC(NC(=O)c2ccc(CS(=O)(=O)c3c(Cl)cccc3Cl)o2)CC1  -16.3%
5. CCN(c1ccccc1)S(=O)(=O)c1ccc(F)c(C(=O)O)c1  -14.4%
6. COCCCNCCOCCOc1ccc(Cl)cc1C(C)(C)C.O=C(O)C(=O)O  -7.81%
7. Cc1cc(S(=O)(=O)Nc2ccc(C(=O)NCC3(N(C)C)CCCCC3)cc2)ccc1F  -7.71%
8. O=C(CCCc1ccccc1)Nc1ccnn1C1CCN(Cc2ccccc2F)CC1  -7.43%
9. Cc1ccccc1-n1c(SCC(=O)N2CCN(c3ccccn3)CC2)nnc1N1CCOCC1  -5.63%
10. COC(=O)C(C)n1cnc2c(nnn2-c2cccc(Cl)c2)c1=O (stereo not drawn)  -3.7%
11. Cc1ccc(N2C(=O)c3ccc(C(=O)O)cc3C2=O)cc1C  -2.94%
12. Cc1c(CN2CCC(C(=O)Nc3ccc(Oc4ccccc4)nc3)CC2)cnn1C  -1.12%
13. O=C(Nc1nc(-c2ccccc2)cs1)c1ccco1  0.339%
14. O=C(c1ccccc1)N1CCC(c2nc3c(nnn3Cc3ccco3)c(=O)[nH]2)CC1  0.867%
15. CCN1CCN(S(=O)(=O)c2ccc(OC)c3ccccc23)CC1  0.905%
16. Cc1cc(C(=O)C(C)OC(=O)c2cnccn2)c(C)n1-c1ccccc1 (stereo not drawn)  0.97%
17. Cc1c(C#N)c2ccccc2n1CC(=O)NCc1cccnc1  1.28%
18. Cc1cc(C)c(C)c(OCC(=O)N2CCCCCC2)c1  1.46%
19. O=C(CN(CC1CCCO1)C(=O)CNS(=O)(=O)c1ccc(Cl)cc1)NCc1ccc(F)cc1 (stereo not drawn)  1.72%
20. CCSc1nnc(NC(=O)c2cc(C)nc3ccccc23)s1  1.94%
21. CCCCCn1cnc2sc(CC)cc2c1=O  2.11%
22. O=C(CSc1ccccc1)N1CCCC(N2CCN(c3ccccc3)CC2)C1 (stereo not drawn)  2.18%
23. Cc1cc(C)c(C)c(S(=O)(=O)N2CCC(C(=O)NNC(=O)c3ccccc3O)CC2)c1C  2.9%
24. CCOC(=O)CNC(=S)N(Cc1ccccc1)Cc1cccs1  3.63%
25. CCOC(=O)c1c(-c2cccs2)csc1NC(=O)CN(CC)CC  3.69%
26. CCOC(=O)[C@H]1[C@H]2COc3ccc(C)cc3[C@@H]2N2C(=O)c3cc(OC)c(OC)cc3NC(=O)[C@@]12C  3.85%
27. CC(C(=O)Nc1nnc(C2CC2)s1)N1C(=O)C2CC=CCC2C1=O (stereo not drawn)  4.18%
28. CN(CC(=O)Nc1cccc(F)c1)C(=O)CCCNC(=O)c1ccc(Cl)cc1  4.19%
29. CCC(=O)Nc1nc(OC)cc(OC)n1  4.25%
30. Cc1cc(C)nc(SCC(=O)Nc2ccc(S(=O)(=O)NC(C)(C)C)cc2)n1  4.28%
31. CCCCCC1CC(=O)N(Cc2ccc(Cl)cc2)C(=O)N1 (stereo not drawn)  4.45%
32. CC(=O)c1cnc(-c2ccccn2)s1  4.65%
33. CCN(CC)S(=O)(=O)c1ccc2oc(C(=O)NC3CC3)c(C)c2c1  5.09%
34. CN1CCN(c2ccc([N+](=O)[O-])cc2S(=O)(=O)N2CCOCC2)CC1  5.44%
35. COc1ccc(Cc2nc3c4c(ncn3n2)Oc2ccc3ccccc3c2C4c2ccc(OC)c(OC)c2)cc1 (stereo not drawn)  5.71%
36. Cc1sc2ncnc(SCC(=O)N3CCCCC3)c2c1C  6.04%
37. O=C(NCc1ccc(F)cc1)C(=O)NCC1OCCN1S(=O)(=O)c1ccc2c(c1)OCCO2 (stereo not drawn)  6.09%
38. CC1CC1C(=O)OCC(=O)Nc1ncc(Cl)cc1Cl (stereo not drawn)  6.11%
39. Cc1cccc(C)c1NC(=O)C1(C)c2cccc[n+]2CC(=O)N1Cc1cccs1.[I-] (stereo not drawn)  6.17%
40. O=C(CSc1nc(-c2ccco2)cc(C(F)(F)F)n1)NCCCN1CCOCC1  6.27%
41. COC(=O)C1=C(C(=O)OC)[C@@H]2N(Cc3ccccc3)c3ccccc3[C@@]23C[C@@H](C(=O)OC)N(C(=O)c2cc(C)oc2C)C3=N1  6.34%
42. COc1ccc(C2CN=NC23CCc2ccccc2C3=O)cc1 (stereo not drawn)  6.62%
43. COc1cccc(C(=O)Nc2cc(C(=O)NCc3ccc(C)cc3)ccc2N2CCC3(CC2)CC(c2cccc(Br)c2)=NO3)c1  7.17%
44. CC1CCc2cc(F)ccc2N1C(=O)CSc1nnc2c3cc(F)ccc3n(C)c2n1 (stereo not drawn)  7.3%
45. N#Cc1c(/N=C/c2ccco2)oc(-c2ccccc2)c1-c1ccccc1  7.39%
46. Cc1ccc(C(=O)c2oc3nc(C)cc(C)c3c2N)cc1  7.73%
47. O=C(NC1CCCCC1)c1ccc(COCC(F)(F)F)o1  8.04%
48. C/C(O)=C(\C#N)P(=O)(c1ccccc1)c1ccccc1  8.39%
49. COc1ccccc1OCC(=O)Nc1ncc(C)s1  8.52%
50. Cc1ccc(NC(=S)NNC(C)(C)C)cc1  8.63%
51. Cc1ccc(S(=O)(=O)N(C)CC(=O)O/N=C(\N)c2cccc(Br)c2)cc1  8.81%
52. COc1ccc(N2C(=NC(=O)c3ccccc3)SC3CS(=O)(=O)CC32)cc1 (stereo not drawn)  8.98%
53. CCOC(=O)C(NS(=O)(=O)c1ccc(C)cc1)(C(F)(F)F)P(=O)(OCC(C)C)OCC(C)C (stereo not drawn)  8.98%
54. Cc1ccc2oc(-c3ccc(C)c(NC(=S)NC(=O)c4cccs4)c3)nc2c1  9.05%
55. Cc1oc2cc3oc(=O)c(CCC(=O)NCc4ccccn4)c(C)c3cc2c1C  9.09%
56. COc1ccc(-c2c(-c3cc(OC)cc(OC)c3)n(C)c3ccc(-c4ccc(N(C)C)nc4)cc23)cc1  9.16%
57. COc1ccccc1NC(=O)COc1ccc2c(c1)OCO2  9.41%
58. COc1ccc(Cl)cc1S(=O)(=O)n1cnc2ccccc21  9.86%
59. O=C(CSc1nc2ccc(NC(=O)CSc3nnnn3-c3ccccc3)cc2s1)Nc1ccccc1  9.96%
60. Cc1ccc(S(=O)(=O)NCCCN2CCOCC2)c(C)c1  10.1%
61. CCCN(C(=O)CSc1nnc2ccccn12)C1CCS(=O)(=O)C1 (stereo not drawn)  10.4%
62. CCOC(=O)CC(=O)CSc1n[nH]c(=O)[nH]c1=O  10.7%
63. Cc1cc(C)c(NC2=NCCCS2)c(C)c1.Cl  10.8%
64. O=C1c2ccc(Br)cc2C(=O)N1c1ccc(Cl)cn1  10.9%
65. O=Cc1cn(CC(=O)Nc2ccc(F)cc2)c2ccccc12  11.4%
66. O=C(NC1CCN(S(=O)(=O)c2cccc(Cl)c2)CC1)C1CCCCC1  11.6%
67. CCN(CC)c1ccc(C(=O)n2cnc3ccccc32)cc1  12.2%
68. Cc1cc(N/N=C/c2ccccc2O)nc(-c2ccccc2O)n1  12.4%
69. CC1CC(c2ccccc2)n2nc(NC(=O)c3ccco3)nc2N1 (stereo not drawn)  12.6%
70. C=CCn1c(O)c(C(CC)=Nc2ccc(C(=O)O)cc2)c(=O)[nH]c1=O  12.7%
71. Cn1ncc([N+](=O)[O-])c1C(=O)Nc1ccc2c(c1)OCCO2  12.7%
72. CC(C)CCOP(N)(=O)Oc1ccccc1 (stereo not drawn)  12.8%
73. O=C(CN1C(=O)CSc2ccccc21)Nc1ccc2c(c1)OCCO2  12.9%
74. CCOC(=O)c1c(NC(=O)c2cc(C(C)C)on2)sc(C(C)=O)c1C  13.5%
75. Cc1ccc(NC(=O)CN2C(=O)S/C(=C\C(=O)Nc3ccc(Cl)cc3)C2=O)cc1  13.7%
76. COc1cccc(CNC(=O)CCC(=O)N2CC(C)Oc3ccccc32)c1OC (stereo not drawn)  13.7%
77. Cl.N=c1ccn(Cc2c(Cl)cccc2Cl)cc1  13.8%
78. CC1=C(C(=O)c2ccccc2)C(c2ccc(N3CCOCC3)cc2)NC(=O)N1 (stereo not drawn)  13.9%
79. Cc1cccc(/C=C2/Sc3ccc(C(=O)N4CCOCC4)cc3NC2=O)c1  14.3%
80. O=C(Nc1ccccc1)Nc1ccc(Br)cc1F  14.3%
81. COc1ccccc1C1SCCN1S(=O)(=O)c1cccc(C(F)(F)F)c1 (stereo not drawn)  16.2%
82. Cc1c(NC(=O)c2ccc(Br)s2)c(=O)n(-c2ccccc2)n1C  16.5%
83. CC(=O)Nc1nnc(SCC(=O)NC2CC2)s1  16.9%
84. CCN(CC)S(=O)(=O)c1cccc(C(=O)N/N=C/c2ccc(N3CCOCC3)cc2)c1  17.1%
85. COc1cccc(CC(=O)Nc2ccc(S(=O)(=O)N3CCOCC3)cc2)c1  19.5%
86. CC1CCCC(NC(=O)COC(=O)c2ccccc2[N+](=O)[O-])C1C (stereo not drawn)  19.7%
87. COc1cccc(CNC(=O)Cn2ccc3cc(S(=O)(=O)N4CCCC4)ccc32)c1OC  26.1%
